Test results taken from paper PMC12136788.
The list shows a part of the results.

B1: chr7:51716546:51716547:+_ENSMUSG00000047085_ENSMUST00000058667|mus_hu|FALSE|FALSE (ssRNA)
RNA: GGGAGUUCUACAGUCCGACGAUCGGGGAUGCUCUCGAUGGGGUUGUUCCGCAGCCAGAGCUCCCGCAGCUUGGACAGGUACUCGAAGGCCUGCGUGGGCACCGUGGUCAGCCGGUUGUCAAAAAGCUCCAGCGUGUUGAGGCUCAACAGAGGAUUGAGCAUCA
B2: chr6:38652254:38652255:-_ENSG00000124767_ENST00000373365|hu_hu|hu_hu_hu_mus_False|1_28 (ssRNA)
RNA: GGGAGUUCUACAGUCCGACGAUCCGAGAACUUCAUAGCAGGGAAGUCAAGCUUCUGCAGGAGGGUCAGUCCAAGAACCCUCGUAUAAAAAUCCAGGGACUUCUUAGGAUCCUUCACUCUUAGCAUCGUUUGCUGCAAUAGAAACAACAGAGGAUUGAGCAUCA
B3: 62686696_62692431_165_CDS_ENSMUSG00000032245_ENSMUST00000034776|mouse|control|control (ssRNA)
RNA: GGGAGUUCUACAGUCCGACGAUCGUCAAGAUGGAAGGGGGCUGUGCGGUCUUUGUCCUCGGCCUUCACAGAGCCAUGCCUGGCCUGCACGAACGCGACACCGGGGCCGCCCGCCGCUCCGAGGAGCUGCCGCCUCCGCGUCGCCAACAGAGGAUUGAGCAUCA
B4: 88224669_88224789_743_CDS_ENSMUSG00000050144_ENSMUST00000057935|mouse|control|control (ssRNA)
RNA: GGGAGUUCUACAGUCCGACGAUCGAUGCUCUGGGCCACAAGGGAGGCCGAGCCCCCGGCUACGAGUGAUUUGACUGUGUUACUCUGGCUGUAGUCUGCCACAAACUUCCGGGUGAGCUCGUAAGUGGUGACAUAGCACUGGCCCAACAGAGGAUUGAGCAUCA
B5: chr2:130852214:130852215:+_ENSMUSG00000027312_ENSMUST00000028781|mus_mus|FALSE|FALSE (ssRNA)
RNA: GGGAGUUCUACAGUCCGACGAUCCAGGUGGAUCUUUGUGAGUUCAGUCCAGCCUGAUCUACAUAGUGAGUUCCAGGCCAGCUAGGACUACACAGUGAGACCCUGUCUCCAAAAACCAAAACAAAACAAAACAAGGCCCCCAUCCAACAGAGGAUUGAGCAUCA
B6: chrX:130830105:130830106:+_ENSMUSG00000033578_ENSMUST00000037687|mus_mus|FALSE|FALSE (ssRNA)
RNA: GGGAGUUCUACAGUCCGACGAUCACUGUAGGCAUCCUUGCUGAGCCUGGGGGUCAACUUGAUGGUCCCCAUGAAAACAAAGAAGAGUCCCAGGGCCACUGAGAGGGCCAUGAUAGUUAUGGUUCGUGGGGAUGCCAUGGGGUCCAACAGAGGAUUGAGCAUCA
B7: chr4:41265268:41265269:+_ENSG00000154277_ENST00000284440|hu_mus|FALSE|FALSE (ssRNA)
RNA: GGGAGUUCUACAGUCCGACGAUCAAAGGGCAUUCGCCCAUCGAGCUCGUACAGAUGGCCGUCCACGUUGUUGAACAGAAUAAAAUGGAAAUUCACUUUGUCAUCUACCCGACACUGGCCCUCCUGGGCCACGGAGUCAUGGGCCAACAGAGGAUUGAGCAUCA
B8: chr1:21069516:21069517:-_ENSG00000127483_ENST00000312239|hu_mus|motif|central (ssRNA)
RNA: GGGAGUUCUACAGUCCGACGAUCUAAGUGCCACAAGGAAGAAUAAAUGAUAAGCAGAAACUGUAGUUCUCAAGUAAGAAGCGGGUACUAUUUUACACAACCUCACAACCCUAAACAAAUACAAACAAGAAGAGGGCUGGGUAGCAACAGAGGAUUGAGCAUCA
B9: 23955877_23955997_4845_CDS_ENSMUSG00000039218_ENSMUST00000088621|mouse|control|control (ssRNA)
RNA: GGGAGUUCUACAGUCCGACGAUCCCGGCGUCGAGGUGGUGUGUGAGACUUUGUCUUUGGCUCUAUUGAGGACCUGGAACCUCUUCGAGCAGUUCUGGAUUUGGGGGCGUGUUCUGGAGAAGACUCAGAACUACUGCUUCCUUCCAACAGAGGAUUGAGCAUCA
B10: chr6:52962840:52962841:+_ENSG00000112146_ENST00000323557|hu_hu|motif|central (ssRNA)
RNA: GGGAGUUCUACAGUCCGACGAUCAUAAAUAUGCUUAAGCAACUUAAUUCCAACUUAAUUUCAAAACACCCCAGGAAUCAACGGUCCCUUUAAAUAAAAAAAAUAAUCAAUUUAUAUUCUUCUUAAAAGAACUCCAACAAUUUACAACAGAGGAUUGAGCAUCA
B11: 182817210_182817330_105_3pUTR_ENSG00000078070_ENST00000265594|human|control|control (ssRNA)
RNA: GGGAGUUCUACAGUCCGACGAUCCGCAGAGGCCGCCGCCAUGUCCCUGGAGCCCGGCCACUCCGUGACUCCCCAGUACAGAGGCAGCUGCGUCCCACACGCCAAACCCGUUCCUCCACUACGAAGCCUCGUGACCCCCGCCGGCAACAGAGGAUUGAGCAUCA
B12: chr4:115894766:115894767:+_ENSMUSG00000028698_ENSMUST00000030464|mus_hu|mus_mus_mus_hu_True|18_48 (ssRNA)
RNA: GGGAGUUCUACAGUCCGACGAUCUUCCACACGGAAAUGUACUUCGGGUUUUCCAACGGCCAGUACCAGUCCGGCCAAACUACCCGAUGAGGACAAGCCCCCUCUCUCCUACAGAACUAAAGCACCCGCCCCCGAACUUUCAAGCAACAGAGGAUUGAGCAUCA
B13: chr2:4544944:4544945:-_ENSMUSG00000039449_ENSMUST00000035721|mus_mus|motif|central (ssRNA)
RNA: GGGAGUUCUACAGUCCGACGAUCCCUUGAUAUGCUGGUGUUCUGAACUUAGGCUGGUAUAACAGCCAUCUUUCGACCUUCGGUCUCCUAUCAAUUCAUCUGUCCAGAAAGAUGACAACCAUACUCUGCUUAGAAAGAAAAGCACAACAGAGGAUUGAGCAUCA
B14: chr5:128440902:128440903:+_ENSG00000066583_ENST00000173527|hu_mus|hu_hu_hu_mus_True|1_48 (ssRNA)
RNA: GGGAGUUCUACAGUCCGACGAUCUUGAACGGUGCUGCCAAGUCCUUUGGGGUAUUGUUCCGUUAUGAUAACUGGAAUCCCUAAGAUCCGGGCCCCUUGCAACAGUCUCUGUCCCACACUAAUGAUGUCCCCAAAGUACUUGAUCAACAGAGGAUUGAGCAUCA
B15: chr2:10930004:10930005:-_ENSG00000143870_ENST00000272227|hu_hu|motif|central (ssRNA)
RNA: GGGAGUUCUACAGUCCGACGAUCGUCAUAAUCCACAGGAGACUCGCCUUUCUGAAAUAUCUUGAUUGUAGGAAAUCCUCGGAUCCCGUAUCGGGAGGCCAGAACCUGAUUGACUGUAGCAUCCACAGCUGCCAGUUUCACUUUCAACAGAGGAUUGAGCAUCA
B16: chr16:45382771:45382772:-_ENSMUSG00000022661_ENSMUST00000163230|mus_mus|mus_mus_mus_hu_True|68_108 (ssRNA)
RNA: GGGAGUUCUACAGUCCGACGAUCCUGAGUGUUAUUGUAAGACAAAUGGACAGGGAGGGCAUGCUUCUGUAAAGAUGUGAGCUAUUGUCUAAGACUAACAAUAUUUAUCUAGCUAUAAAAAUAAGUUAAAUGAAUAAGUUAAGACAACAGAGGAUUGAGCAUCA
B17: chr4:109034340:109034341:+_ENSMUSG00000028552_ENSMUST00000102729|mus_mus|motif|central (ssRNA)
RNA: GGGAGUUCUACAGUCCGACGAUCUUCUUCUCUAGCUUUCAACAGUUCUUCCUCAUAACUGGAGAUCUGAGAUUCUUGACGGGUUAUUUCUGCUUUCAGGGAAGAAAUCAGCUGGGCCUCCUCAGCACACUUUUUCCUGACUUCCAACAGAGGAUUGAGCAUCA
B18: 100727982_100729460_2297_CDS_ENSG00000136021_ENST00000360820|human|control|control (ssRNA)
RNA: GGGAGUUCUACAGUCCGACGAUCAAUAUUUGUAACUUUCAUCUCCUCAGAAACAUUCAUUUGAUUUCCUAUAUCCAAAGAUUUCUGCUGUUCUUGCAUUAUAUGAAGUUGCUCCAGUUUAGUCUUAUGUUCAGACUCCAAUCUCAACAGAGGAUUGAGCAUCA
B19: chr8:117878989:117878990:-_ENSG00000164754_ENST00000297338|hu_hu|hu_hu_hu_mus_True|18_28 (ssRNA)
RNA: GGGAGUUCUACAGUCCGACGAUCCCAGAGGCCCUCGUUUACUGAGGACAAAAUGUGCGUAGAACAUUUUUCUUAUUUGCUAUGAAAUAAGAAGAAACCUGGAUCUCCCGCUGGGAGUUGGGCGGGCGGGUGGCCCGGGGAGGGCAACAGAGGAUUGAGCAUCA
B20: chr3:148802587:148802588:-_ENSG00000071794_ENST00000310053|hu_mus|hu_hu_hu_mus_False|18_28 (ssRNA)
RNA: GGGAGUUCUACAGUCCGACGAUCUCCAACAACUUGUCCUCUCAUAGUUCCAAAUAAAACCAAAUCUUGCUCUUCAUCACUCGUUAGGAAGUCAUCUGGAGGAAUAACAUCUUGGAAUUCAAAACGUGGCAAGAAAGUUGAGUACAACAGAGGAUUGAGCAUCA
B21: chr2:73747330:73747331:-_ENSMUSG00000018770_ENSMUST00000018914|mus_hu|FALSE|FALSE (ssRNA)
RNA: GGGAGUUCUACAGUCCGACGAUCUCCAAUACCAGCACCAGAACCAGCCACUCCUACUGUUGCAGCACCUGCACCAAUAAAUUUGGCAGCAGUAUCAAUGUCUCUGCUGAUUGCACUGGUCUGAAACUCCCUUUGGAUUAGCUGCAACAGAGGAUUGAGCAUCA
B22: chr19:5156467:5156468:-_ENSMUSG00000024855_ENSMUST00000025786|mus_mus|FALSE|FALSE (ssRNA)
RNA: GGGAGUUCUACAGUCCGACGAUCUUUUAUUUCUGCCACUGGCACAGAGACAUCCUUCACAUUGCUGUGCAGGCCAAGUACUAAAGCGCCCUCAUUAGGGUGUUGCAUCACCUCUGCCAUGUUGAUGAGUCCCACAGCUAAGGUCAACAGAGGAUUGAGCAUCA

Target: T1, UNK ZnF1-3 (human, UniProt Q9C0B0 31-174)
T1 sequence: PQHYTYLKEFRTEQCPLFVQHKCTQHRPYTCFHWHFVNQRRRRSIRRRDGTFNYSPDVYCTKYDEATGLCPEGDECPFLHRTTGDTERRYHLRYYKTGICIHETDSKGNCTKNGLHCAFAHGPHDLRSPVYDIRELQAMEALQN
Assay: nsRBNS (natural sequence RNA bind-n-seq); RBNS binding buffer (assumed for nsRBNS): 25 mM Tris pH 7.5, 150 mM KCl, 3 mM MgCl2, 0.01% Triton X-100, 500 ug/ml BSA, 20 U/ml SUPERase-In, 4 C; UNK is unkempt and MSI1 is Musashi-1; names of the RNAs are library labels; protein concentration not given here; high values mean tight binding

Row | Binder | binding signal
1 | B1 | 0.498 enrichment R
2 | B2 | 0.597 enrichment R
3 | B3 | 0.547 enrichment R
4 | B4 | 0.841 enrichment R
5 | B5 | 1.07 enrichment R
6 | B6 | 0.709 enrichment R
7 | B7 | 1.01 enrichment R
8 | B8 | 1.5 enrichment R
9 | B9 | 0.717 enrichment R
10 | B10 | 0.895 enrichment R
11 | B11 | 0.822 enrichment R
12 | B12 | 0.938 enrichment R
13 | B13 | 0.837 enrichment R
14 | B14 | 0.589 enrichment R
15 | B15 | 1.25 enrichment R
16 | B16 | 1.5 enrichment R
17 | B17 | 0.56 enrichment R
18 | B18 | 0.476 enrichment R
19 | B19 | 1.11 enrichment R
20 | B20 | 1.55 enrichment R
21 | B21 | 0.838 enrichment R
22 | B22 | 0.866 enrichment R
